The list shows a part of the results. Read counts after selection give these values, which scatter widely. Each score is taken over the longer molecules that contain the sequence shown.
Columns and labels:
Assay in all cases: 6-mer SELEX enrichment z-score vs GST control; IMP3 is the RNA-binding protein IGF2BP3; higher = more enriched by binding
IMP3 KH1-4 = details: construct: KH1-4 (164-579); SELEX round: R4
Procedure: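 SELEX-seq with GST-tagged IMP3 KH1-4 (Pro164-Lys579) and an N40 RNA pool, round 4. 6-mer z-score of sequence-tag enrichment normalised to the corresponding GST SELEX round; RNA k-mers written as DNA (T for U).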

IMP3 RRM1-2 = details: construct: RRM1-2 (1-163); SELEX round: R2
Procedure: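 SELEX-seq with GST-tagged IMP3 RRM1-2 (Met1-Asn163) and an N40 RNA pool, round 2. 6-mer enrichment z-score normalised to GST SELEX. RNA written as DNA (T = U).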

IMP3 full-length = IMP3 full-length (UniProt O00425); details: construct: FL IMP3 (1-579); SELEX round: R4
Procedure: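 SELEX-seq with GST-tagged full-length IMP3 and an N40 RNA pool, round 4. Each 6-mer is scored as an enrichment z-score of sequence tags containing it, normalised to the matching GST SELEX round. RNA written as DNA (T = U).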

IMP3 KH1-2 = details: construct: KH1-2 (164-376); SELEX round: R4
Procedure: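 SELEX-seq with GST-tagged IMP3 KH1-2 (Pro164-Phe376) and an N40 RNA pool, round 4 (stringent 300/600 mM KCl washes). 6-mer z-score of sequence-tag enrichment normalised to the corresponding GST SELEX round; RNA k-mers written as DNA (T for U).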

IMP3 KH3-4 = details: construct: KH3-4 (377-579); SELEX round: R4
Procedure: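 SELEX-seq with GST-tagged IMP3 KH3-4 (Pro377-Lys579) and an N40 RNA pool, round 4. 6-mer z-score of sequence-tag enrichment normalised to the corresponding GST SELEX round; RNA k-mers written as DNA (T for U).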

Chain of IMP3 RRM1-2 (chain, as listed by the source): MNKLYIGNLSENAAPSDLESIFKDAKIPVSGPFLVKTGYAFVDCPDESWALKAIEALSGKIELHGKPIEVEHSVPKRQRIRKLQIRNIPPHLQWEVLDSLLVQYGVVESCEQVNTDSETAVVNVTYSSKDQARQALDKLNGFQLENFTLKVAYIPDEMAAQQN
Chain of IMP3 KH1-2 (chain, as listed by the source): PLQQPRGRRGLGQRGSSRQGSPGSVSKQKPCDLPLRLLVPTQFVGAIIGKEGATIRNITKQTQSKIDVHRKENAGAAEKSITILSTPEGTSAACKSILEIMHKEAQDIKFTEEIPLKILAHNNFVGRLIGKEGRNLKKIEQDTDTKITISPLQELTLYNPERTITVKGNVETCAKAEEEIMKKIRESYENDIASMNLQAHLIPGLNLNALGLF
Chain of UniProt O00425 (O00425 whole entry): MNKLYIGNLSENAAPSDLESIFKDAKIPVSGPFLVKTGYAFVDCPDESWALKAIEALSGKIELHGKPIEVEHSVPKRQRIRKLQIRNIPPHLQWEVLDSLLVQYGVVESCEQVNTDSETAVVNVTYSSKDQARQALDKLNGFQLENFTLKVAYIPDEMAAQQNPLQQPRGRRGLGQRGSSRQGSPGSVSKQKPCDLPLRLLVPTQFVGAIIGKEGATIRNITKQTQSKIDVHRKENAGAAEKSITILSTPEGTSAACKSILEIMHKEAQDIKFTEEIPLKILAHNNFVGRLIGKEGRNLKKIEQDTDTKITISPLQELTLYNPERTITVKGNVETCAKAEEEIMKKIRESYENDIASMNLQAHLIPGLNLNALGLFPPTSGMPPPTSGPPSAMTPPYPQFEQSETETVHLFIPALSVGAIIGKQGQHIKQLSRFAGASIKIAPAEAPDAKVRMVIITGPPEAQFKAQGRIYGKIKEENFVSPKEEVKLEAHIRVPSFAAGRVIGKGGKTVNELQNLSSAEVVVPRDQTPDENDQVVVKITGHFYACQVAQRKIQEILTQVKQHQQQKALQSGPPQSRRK
Chain of IMP3 KH3-4 (chain, as listed by the source): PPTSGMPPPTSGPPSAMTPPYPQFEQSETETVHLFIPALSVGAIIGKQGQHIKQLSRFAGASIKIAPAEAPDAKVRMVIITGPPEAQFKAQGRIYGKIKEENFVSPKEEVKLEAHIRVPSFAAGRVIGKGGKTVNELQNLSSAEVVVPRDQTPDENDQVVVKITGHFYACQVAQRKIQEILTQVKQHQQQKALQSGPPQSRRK
Chain of IMP3 KH1-4 (chain, as listed by the source): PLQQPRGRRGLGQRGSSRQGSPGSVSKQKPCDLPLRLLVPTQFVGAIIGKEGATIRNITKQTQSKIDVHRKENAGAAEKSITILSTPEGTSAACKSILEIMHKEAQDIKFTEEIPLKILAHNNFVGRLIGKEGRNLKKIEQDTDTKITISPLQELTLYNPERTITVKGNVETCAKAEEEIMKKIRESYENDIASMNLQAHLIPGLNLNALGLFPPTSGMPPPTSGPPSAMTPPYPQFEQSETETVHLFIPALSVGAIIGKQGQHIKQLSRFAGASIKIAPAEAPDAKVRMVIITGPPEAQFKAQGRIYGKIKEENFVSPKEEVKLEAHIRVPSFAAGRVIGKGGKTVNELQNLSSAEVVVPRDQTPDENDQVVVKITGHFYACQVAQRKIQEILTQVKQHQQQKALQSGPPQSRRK

| Sequence | 6-mer SELEX enrichment z-score (IMP3 KH1-4) | 6-mer SELEX enrichment z-score (IMP3 RRM1-2) | 6-mer SELEX enrichment z-score (IMP3 full-length) | 6-mer SELEX enrichment z-score (IMP3 KH1-2) | 6-mer SELEX enrichment z-score (IMP3 KH3-4) |
| --- | --- | --- | --- | --- | --- |
| CTCGGG | -0.694 | 0.429 | 0.101 | -0.453 | -0.369 |
| AATCGC | -0.104 | -0.402 | -0.301 | -0.191 | -0.337 |
| ATCTGC | 0.166 | 0.085 | 0.208 | 0.145 | -0.154 |
| TTTATG | 0.801 | 0.194 | 0.118 | 0.621 | 1.21 |
| TTGGTT | -0.012 | 0.625 | 0.141 | 0.059 | 0.2 |
| CCCTGT | -0.243 | -0.348 | -0.426 | -0.237 | -0.624 |
| CGGACA | 0.517 | -0.142 | 0.909 | 0.245 | 0.212 |
| AGGCCC | -0.379 | -0.586 | -0.024 | -0.199 | -0.749 |
| ATGGTA | -0.071 | 0.153 | 0.017 | -0.136 | 0.048 |
| ATATGT | 1.28 | -0.026 | 0.2 | 0.887 | 1.49 |
| GATCAT | 0.99 | 1.28 | 1.2 | 0.685 | 0.922 |
| GATAGA | 0.874 | -0.831 | -0.246 | 0.673 | 1.24 |
| TAGACT | -0.016 | -0.3 | -0.438 | 0.004 | 0.099 |
| GCCGGG | -0.184 | -0.407 | 0.744 | 0.233 | -0.077 |
| TTCAGA | 0.394 | 0.731 | 0.597 | 0.468 | 0.455 |
| TACCTA | -1.29 | -0.436 | -1.2 | -1.22 | -1.3 |
| TACACC | -0.128 | 0.072 | -0.328 | -0.002 | -0.773 |
| TTGGAA | -0.148 | -0.274 | -0.381 | -0.278 | -0.042 |
| CCCTTG | -0.65 | -0.339 | -0.694 | -0.611 | -0.885 |
| TATTGC | 0.75 | 0.128 | 0.13 | 0.655 | 0.701 |
| GCACTG | 0.511 | 0.289 | 0.862 | 0.392 | 0.074 |
| CCATGA | -0.05 | -0.324 | -0.406 | -0.302 | -0.482 |
| CCACCC | -1.19 | -0.984 | -1.42 | -1.17 | -2.16 |
| GTCAGG | 0.483 | 0.233 | 0.757 | 0.449 | 0.473 |
| GACTTG | -0.683 | -0.167 | -0.586 | -0.681 | -0.62 |
| GAACTG | 0.001 | -1.08 | -0.666 | -0.144 | -0.144 |
| CAAGCT | -0.471 | 0.051 | -0.077 | -0.42 | -0.456 |
| AGGAGA | 1.44 | -0.789 | 0.195 | 1.17 | 1.37 |
| AAATTT | 0.986 | -0.615 | -0.355 | 1.04 | 1.93 |
| TCATGT | 0.727 | 0.865 | 0.953 | 0.481 | 0.572 |
